Assay results reported in the supplement of paper PMC11417369.
± gives the standard deviation of the averaged measurements. Some of the results follow.

Tested on: PfAP2-EXP AP2 domain (GST-tagged)
Assay: gcPBM binding intensity (ln(normalized median fluorescence intensity)); higher = stronger DNA binding
In short: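 GST-tagged P. falciparum DNA-binding domains produced in E. coli were incubated for 1 h on an Agilent 4 × 180k array of primer-extended double-stranded 36-bp intergenic genomic probes with negative controls. Binding intensity is the highest Masliner-normalised natural-log median intensity across replicate spots of either probe orientation, with bound protein detected by Alexa488 anti-GST antibody at 488 nm.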

Sequence	gcPBM binding intensity (ln)
TAAAATATAGGAAATACATGCATATTAAATATTCCT [TGCATGCA_site1057]	8.66 ± 0.28
TACTTCATTCATTTTACACACATATAAACCCTTTTA [CACACA_site3229]	8.9 ± 0.45
TACATGCAAAAAATTCCACACACACCCCCACATATA [CACACA_site8329]	9.82 ± 0.42
ATAAATTGATTCAACACACACATATGTAGGAAGTTA [CACACA_site3253]	8.64 ± 0.61
AAAAAAAAAAAAAGTACACACATACAGATAAATATA [CACACA_site5067]	8.61 ± 0.55
TTTTTTAAATTGGTAGTGCAATATGATTGAACAAAA [GTGCAC_site9715]	8.6 ± 0.014
AAATTATTAAAAAAGTGTACATATTTTTATAATACC [XGTACX_site5610]	8.39 ± 0.23
ATAAGCATACATATTACACACATATAACATCTATAT [CACACA_site7219]	8.61 ± 0.47
GGGTATACCAATATAACACACATATATATATAATAT [CACACA_site450]	8.74 ± 0.39
TATTTTTTTTCAAAAAAGTTTATTTAGAACTAAATA [XGTACX_negctrl_site487]	7.88 ± 0.43
TTAATCAAATTACTATGTACATAAAACATATAAGAA [XGTACX_site381]	8.72 ± 0.33
ATAAATACGATTAATTAGGTTTGTATAAATTAAATT [GTGCAC_negctrl_site635]	8.18 ± 0.33
AATATCACATTCCACGGTACACACTAAAAGAAAAAT [XGTACX_site7653]	8.77 ± 0.51
ATAACTTTTGCGCGTACACACATTTATCCTCTTTAT [CACACA_site209]	9.8 ± 0.54
TCATGTAGTAAAAACTGTACAAATTATTTATCATGT [XGTACX_site1727]	8.58 ± 0.44
TTTCATTTTAGAAGTACACACAAAAAATAAAATAAT [CACACA_site2141]	8.8 ± 0.44
TTTTCTTTATTATAATGTACTCACAAATAAATATAA [XGTACX_site7298]	8.45 ± 0.35
CTATAATAGAAGTGTACACACATATTTATGTCTGTA [CACACA_site7462]	8.47 ± 0.26
GATGGGCAAATTTACTGTACTTTTATAATATTTTTT [XGTACX_site4830]	8.77 ± 0.35
TATAATGGTAAAAACACACAAATATGAAGATGTTAA [CACACA_site6479]	8.59 ± 0.36
AAAATTGTGAAAGGGAAGATGATCAAATTGTTAAGG [CACACA_negctrl_site1492]	8.64 ± 0.4
GTACCTATAAATATTACACACATTTTCATTTTTAAC [CACACA_site7022]	8.93 ± 0.34
AAAAAAAATTATATTTGTACGCATTAAAAAATCTAA [XGTACX_site1616]	8.4 ± 0.36

Sequence	gcPBM binding intensity (ln)
CTTAAAAACAAAAATGCACACATAATAAGCATATGT [CACACA_site9149]	8.63 ± 0.42
TGAAATTAGATATATACACACATATAGATTTATATG [CACACA_site7619]	8.17 ± 0.49
ATTAAACTCATTAAGAGTACAGATAACATTAAAGTA [XGTACX_site8697]	8.52 ± 0.36
TTTTTTAAAGCCTGTTCATCATCCTTACCTATCAAC [GTGCAC_negctrl_site452]	8.64 ± 0.55
TGTCCTTATTGGCACACACACATATAAGAAATTTAA [CACACA_site5724]	8.46 ± 0.47
TATTTTTTCTTAAACACACACATATAGATTTATAAC [CACACA_site7354]	8.61 ± 0.52
ACCCTATTTATATATACACACACATATATAAATAAA [CACACA_site8980]	8.78 ± 0.31
ATATGGAATGATCATAGTACATAATTTAAAATTTTA [XGTACX_site3568]	8.61 ± 0.42
CTAATTCGTATATGCTGTACCTTTTTCTTACGACTA [XGTACX_site4392]	8.86 ± 0.33
AACATATATAATATTTGTACTTATATACAAAATATG [XGTACX_site7502]	8.32 ± 0.34
ATCAGATATATATATTGTACATTTATATATAAATCA [XGTACX_site1960]	8.46 ± 0.36
ATTAAAAATTATATTTTATAAAAATTAAAAGAAATA [CACACA_negctrl_site65]	8.28 ± 0.27
ACTTTTTTGAACAACGTGCACGTATTCATAACAAAA	8.87 ± 0.085
ATAGGATGTTTGCACTGTACCAAAAAATGAGCTGCA [XGTACX_site2825]	8.9 ± 0.38
ATTTATTTATCTAGCTATTCACCATTTTCTTTTGTT [CACACA_negctrl_site1259]	8.86 ± 0.41
AAAGTATACAATGACGCATGCATATATATATACATA [TGCATGCA_site429]	9.38 ± 0.18
TAGAATATGTTTAGTTGTACAAAACAAAATGGAATT [XGTACX_site5293]	8.61 ± 0.33
ATTTATTTTTTGTGTTCACACATTAGTATCATCTAT [CACACA_site5274]	8.62 ± 0.42
CACATAAAAAAATAAACACACATATGTATATATATA [CACACA_site3177]	9.215 ± 0.007
ATTTTTCTAAAATACTGTACAAAGGTGCATAAAAAG [XGTACX_site4425]	9.98 ± 0.61
TCTAATGATATATACACACACATATAGATTTATATA [CACACA_site7044]	8.32 ± 0.38
TTTTCTGTTTTCATTACACACCTTACAAGAACAATA [CACACA_site2158]	8.66 ± 0.19
ATATTTATGGAATATACACACATGTATAATTATATA [CACACA_site2033]	8.36 ± 0.37

Sequence	gcPBM binding intensity (ln)
AAATAAGAAAAAGCGCGTACACATAACATTTTTATA [XGTACX_site8807]	8.69 ± 0.29
TGCTTTTCTTTTTGCACACTTATGCATATATATATA [CACACA_site2583]	9.95 ± 0.13
TTTATTCAAGGAATAGTGCATAATAATAAGTATTAT	8.39 ± 0.27
TGTATTCTCTTAGTAGTGCATTTGAAGATTATATAA	8.8 ± 0.16
ATTTTTTTTTTTTTTTCATGAAATTTTTTTTTTTTT [CACACA_negctrl_site1069]	8.26 ± 0.58
ATATATTTATTATTAGGTACACATATATATATATAT [XGTACX_site5045]	10.2 ± 0.54
TTAAAAAAAAATAAAGGTACACGGAGAAATCCTTTT [XGTACX_site7509]	8.39 ± 0.43
TTATATAGAATTAATTTCTTTTTTTTCTTTTTTAAA [CACACA_negctrl_site1308]	8.12 ± 0.55
TGTAGTAATGCTTATTGTACATATACATTTCTTACA [XGTACX_site219]	8.55 ± 0.32
AACCACCACACCATCACACATAAGATTAGACGAGTA [CACACA_site6063]	8.46 ± 0.54
TATTATATATATGGAAGTACAGGTATATCGTTTTTC [XGTACX_site3771]	8.62 ± 0.42
TTTTTTTTTCGCTTTTGTACACATTTTATAGAACAG [XGTACX_site2416]	8.87 ± 0.46
TTTTCCCTTAACCTCTGTACATATAATTTTCTTTCC [XGTACX_site4180]	8.98 ± 0.52
AAATATTTTTTAATTGTTCACTTGGTGGATCATTAA [CACACA_negctrl_site922]	8.28 ± 0.28
TATCCATTATTTAAAAGTACAAAAAACGATTTACAC [XGTACX_site2979]	8.66 ± 0.37
AAGAATTATATATTCACACAAAAAAAAAGTAAAAGA [CACACA_site5335]	8.69 ± 0.46
TTTTAACATAGAAGTACACACATATAATCAATCATA [CACACA_site5313]	8.59 ± 0.4
AAAAAAAAAAAAAAGAGTACATTTATTTATATATCT [XGTACX_site2381]	8.23 ± 0.19
TGTTTAACACATGTTTCAAACAAAAAAAAAAAGACA [CACACA_negctrl_site1356]	8.63 ± 0.59
AATATATTAAATCTTACACACTAAAAAATATGTAAC [CACACA_site4325]	8.26 ± 0.35
TATAATATATATATATGTACATATTATTTACATATA [XGTACX_site7312]	8.4 ± 0.28
TTTTAAATTTTTTAAAGTACACGTCGAAAAGGTATA [XGTACX_site76]	8.99 ± 0.32
TTAATTTTTGAAGGTACACACTAATATATTAAATAT [CACACA_site4791]	8.63 ± 0.21

Sequence	gcPBM binding intensity (ln)
AAAATGAAACAAATATGTACACATATAAATATTTCC [XGTACX_site54]	8.22 ± 0.35
TTATCCCCCTATCATTGTACATTAATACAAACTAAA [XGTACX_site5630]	9.95 ± 0.4
CTTTTAATTATAAAATGTACTTAAAAATAATAATAC [XGTACX_site635]	8.43 ± 0.26
AAAACAGACAAACACACACACACATATATATATATA [CACACA_site3393]	10.1 ± 0.49
ATATTTGTAATTATTAAACACACACTAATTATATAT [CACACA_site8803]	8.52 ± 0.45
ATAAAGAAAATATGGAGTACATTTATATCCAATATA [XGTACX_site3085]	8.43 ± 0.4
TTTTATGAAAAATGGCTTATCTGTAAAGAAGTGGAG [CACACA_negctrl_site1586]	8.73 ± 0.39
AAATATATACTACCGATGCACTAAATATAAACACAT [GTGCAC_site9777]	8.76 ± 0.18
TTATCATTTGGACACGCACACACACCGAAAAAGAAA [CACACA_site8008]	8.99 ± 0.65
AATAATTTAAGGAATACACACAAGAAAAAAATAAGA [CACACA_site60]	9.07 ± 0.51
TTTTTTGCTAAAAAGAGTACTAATAAAAAATTTATT [XGTACX_site5235]	8.34 ± 0.34
TTTTTGTAATTATATTAATATATATATATATATATA [CACACA_negctrl_site198]	9.9 ± 0.26
GAAAACATTAAAAGTTAGATCATAAGAAAAGAATAT [GTGCAC_negctrl_site726]	8.74 ± 0.42
CATATATGTGATAACACGCACACAAATGTATAGAAT [CACACA_site2594]	8.78 ± 0.44
ACATTATATAAAATATGTACATATAAAAAATTCTAT [XGTACX_site1617]	8.74 ± 0.26
GTTCATCACATATACACATGCATATTCTAATATGTA [TGCATGCA_site809]	9.03 ± 0.35
ATTATTTAGAAATGAGCACACAAAAAGAAGAATTTT [CACACA_site7913]	8.65 ± 0.52
TATTTATTTATTTATGCATGCATGAATAATTTTTAC [TGCATGCA_site31]	9.78 ± 0.18
ATAATAATATAAAATACACACCTATTATTTTTACAA [CACACA_site6069]	8.32 ± 0.38
CCACATATACAAAACACACACACAACGTTTTAATAA [CACACA_site1978]	8.74 ± 0.61
